{"source": "the supplement of paper PMC3334620", "note": "Whole data set: some 33,000 sequences, median “E-score (-0.5 to 0.5)” near -0.056, cut for the highest 2% near 0.38. Some of the results follow.", "data": [{"biological_target": "Stb4 (UniProt P50104)", "experiment": "PBM E-score (8-mer binding enrichment) (E-score (-0.5 to 0.5)); higher = stronger / more preferred TF binding; most listed sequences are background and not binding sites", "settings": "protein concentration: 200 nM; construct: GST-DNA-binding domain", "method": "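Universal 'all 10-mer' protein binding microarrays (Agilent AMADID 015681) probed with GST-tagged S. cerevisiae TFs (full-length or DBD) made by in vitro transcription/translation (PURExpress), about 100-200 nM. Bound TF was detected with fluorescent anti-GST. Each ungapped 8-mer (which stands for itself and its reverse complement) is scored by the PBM enrichment score (E-score), a modified Wilcoxon-Mann-Whitney statistic from -0.5 to +0.5, computed with the Universal PBM Analysis Suite. Scale: above 0.35 generally sequence-specific binding.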", "values": [{"sequence": "CAAACCCG", "PBM E-score": 0.219}, {"sequence": "AGGGATTC", "PBM E-score": -0.0369}, {"sequence": "CAGCATCG", "PBM E-score": -0.119}, {"sequence": "CGCTGGCA", "PBM E-score": -0.227}, {"sequence": "CCATATGC", "PBM E-score": -0.104}, {"sequence": "CCCCATAA", "PBM E-score": -0.0851}, {"sequence": "CCTATTAG", "PBM E-score": -0.145}, {"sequence": "AAGCCCTG", "PBM E-score": -0.271}, {"sequence": "AATTTTGC", "PBM E-score": 0.00035}, {"sequence": "AATATGCG", "PBM E-score": -0.0103}, {"sequence": "GAAATGAC", "PBM E-score": -0.0643}, {"sequence": "GCAGGACC", "PBM E-score": -0.156}, {"sequence": "GTTTCCGA", "PBM E-score": 0.466}, {"sequence": "CCACTATA", "PBM E-score": -0.0398}, {"sequence": "GCCGGAGC", "PBM E-score": 0.283}, {"sequence": "CCCATTCG", "PBM E-score": -0.0691}, {"sequence": "AAACTAGT", "PBM E-score": -0.114}, {"sequence": "GATTCCGA", "PBM E-score": 0.444}, {"sequence": "ATGAGCGC", "PBM E-score": 0.0167}, {"sequence": "CGCTCTTC", "PBM E-score": -0.0242}, {"sequence": "AAAGATTA", "PBM E-score": 0.0914}, {"sequence": "GGACAGAA", "PBM E-score": -0.00634}, {"sequence": "ACTCGCCG", "PBM E-score": 0.123}, {"sequence": "CATCCCGC", "PBM E-score": 0.122}, {"sequence": "GTACACCA", "PBM E-score": -0.121}, {"sequence": "CAGACTCA", "PBM E-score": -0.186}, {"sequence": "AGCCGCGA", "PBM E-score": 0.209}, {"sequence": "ATACGAGG", "PBM E-score": -0.0328}, {"sequence": "CGTCGCGC", "PBM E-score": 0.00783}, {"sequence": "GGACGATA", "PBM E-score": -0.0892}, {"sequence": "CTTGCTGC", "PBM E-score": -0.24}, {"sequence": "CGTTCAAC", "PBM E-score": -0.104}, {"sequence": "GATGCAAC", "PBM E-score": -0.12}, {"sequence": "TTAAGGAA", "PBM E-score": -0.0537}, {"sequence": "ACCGTGAG", "PBM E-score": -0.0243}, {"sequence": "CTAGATCA", "PBM E-score": -0.251}, {"sequence": "AGGAAAGG", "PBM E-score": -0.131}, {"sequence": "ACACGAAG", "PBM E-score": 0.00748}, {"sequence": "CCTAACAG", "PBM E-score": -0.0901}, {"sequence": "TCGCCTAA", "PBM E-score": -0.031}, {"sequence": "CATGGCTA", "PBM E-score": -0.0176}, {"sequence": "GCTTATTA", "PBM E-score": -0.132}, {"sequence": "ACGTTATG", "PBM E-score": -0.068}, {"sequence": "AGCTCATC", "PBM E-score": -0.0601}, {"sequence": "AACTCGAA", "PBM E-score": -0.149}, {"sequence": "GACGGGCA", "PBM E-score": -0.01}, {"sequence": "CGCAGTAC", "PBM E-score": -0.204}, {"sequence": "AGCGCTTC", "PBM E-score": -0.0479}, {"sequence": "CAAAATGG", "PBM E-score": 0.0214}, {"sequence": "CCCGAACG", "PBM E-score": 0.378}, {"sequence": "TAACGGAA", "PBM E-score": 0.318}, {"sequence": "ACCCGGGT", "PBM E-score": 0.41}, {"sequence": "CACTTGGG", "PBM E-score": -0.144}, {"sequence": "ACGGGACC", "PBM E-score": 0.181}, {"sequence": "CTCGAGGA", "PBM E-score": -0.188}, {"sequence": "ACATGGTG", "PBM E-score": -0.225}, {"sequence": "AAGAGCAT", "PBM E-score": -0.138}, {"sequence": "AGTATCAG", "PBM E-score": -0.231}, {"sequence": "ATGGCAAG", "PBM E-score": -0.147}, {"sequence": "AAATGTTC", "PBM E-score": -0.013}, {"sequence": "ATTCCGCA", "PBM E-score": 0.169}, {"sequence": "CTTTGAGA", "PBM E-score": -0.107}, {"sequence": "AACCCATG", "PBM E-score": -0.123}, {"sequence": "TGCCACAA", "PBM E-score": -0.0292}, {"sequence": "CAACATTC", "PBM E-score": -0.0398}, {"sequence": "CGTTACGC", "PBM E-score": -0.0964}, {"sequence": "CCCCCTTC", "PBM E-score": -0.175}, {"sequence": "CTAAAAGC", "PBM E-score": -0.0283}, {"sequence": "GCCAATAC", "PBM E-score": -0.14}, {"sequence": "ATAAGTGA", "PBM E-score": -0.129}, {"sequence": "AATCAGGA", "PBM E-score": -0.142}, {"sequence": "AGCTGCCC", "PBM E-score": 0.087}, {"sequence": "AGCGTAGA", "PBM E-score": 0.0958}, {"sequence": "ACAACGGA", "PBM E-score": 0.282}, {"sequence": "ATCACATG", "PBM E-score": -0.05}, {"sequence": "GACCCGCC", "PBM E-score": 0.0652}, {"sequence": "CTGATCCC", "PBM E-score": -0.0865}, {"sequence": "CTACATAG", "PBM E-score": -0.128}, {"sequence": "AGATGGCT", "PBM E-score": -0.195}, {"sequence": "AAGCTCAC", "PBM E-score": -0.0192}, {"sequence": "CCCCTCGG", "PBM E-score": 0.332}, {"sequence": "ATTCATTG", "PBM E-score": -0.191}, {"sequence": "GCTTGCGA", "PBM E-score": -0.104}, {"sequence": "ACCACGAC", "PBM E-score": -0.309}, {"sequence": "ACCGGCAA", "PBM E-score": 0.229}, {"sequence": "GACGACAC", "PBM E-score": -0.0829}, {"sequence": "CAGATGAA", "PBM E-score": -0.189}, {"sequence": "AACAGCCG", "PBM E-score": 0.298}, {"sequence": "ACAGCATA", "PBM E-score": 0.0201}, {"sequence": "AGTTTACC", "PBM E-score": 0.109}, {"sequence": "CCTAGGCC", "PBM E-score": -0.104}, {"sequence": "CAAAGGGG", "PBM E-score": -0.122}, {"sequence": "AGATTCAG", "PBM E-score": -0.1}, {"sequence": "ACTCTCCT", "PBM E-score": -0.272}, {"sequence": "AGCCAGCG", "PBM E-score": -0.131}, {"sequence": "CGGAGTGA", "PBM E-score": 0.27}, {"sequence": "ACTCTCTA", "PBM E-score": -0.298}, {"sequence": "AATGTCAG", "PBM E-score": -0.0429}, {"sequence": "CAAAGATC", "PBM E-score": -0.136}, {"sequence": "GCCGACGC", "PBM E-score": 0.324}, {"sequence": "CACAACTC", "PBM E-score": -0.149}, {"sequence": "ATGCATCA", "PBM E-score": 0.0413}, {"sequence": "AAACGCCC", "PBM E-score": 0.0417}, {"sequence": "GCATCTCA", "PBM E-score": -0.222}, {"sequence": "CAAACAAG", "PBM E-score": 0.0864}, {"sequence": "ATACAAGG", "PBM E-score": 0.0637}, {"sequence": "CTTTATCA", "PBM E-score": -0.208}, {"sequence": "GCAGCGCA", "PBM E-score": -0.138}, {"sequence": "ACTTAACA", "PBM E-score": -0.128}, {"sequence": "AGCTCACG", "PBM E-score": -0.183}, {"sequence": "ACAAAGCA", "PBM E-score": -0.0564}, {"sequence": "CGCTACAC", "PBM E-score": -0.097}, {"sequence": "ATACCTGC", "PBM E-score": -0.115}, {"sequence": "CGAGACAA", "PBM E-score": 0.0106}, {"sequence": "CCATTCAA", "PBM E-score": -0.255}, {"sequence": "AGCTAATG", "PBM E-score": -0.307}, {"sequence": "ATCGTAAT", "PBM E-score": -0.0583}, {"sequence": "CACTATAC", "PBM E-score": -0.151}, {"sequence": "GGAGACAC", "PBM E-score": 0.0441}, {"sequence": "AATGTGTA", "PBM E-score": -0.189}, {"sequence": "AGGGACGG", "PBM E-score": 0.0135}, {"sequence": "CGCCGCGC", "PBM E-score": 0.119}, {"sequence": "GAGTGAAC", "PBM E-score": 0.00509}, {"sequence": "TATCGCAA", "PBM E-score": -0.178}, {"sequence": "CAGAAGCC", "PBM E-score": -0.0243}, {"sequence": "ATCCTAAT", "PBM E-score": -0.0888}, {"sequence": "ACCCAGCA", "PBM E-score": -0.00407}, {"sequence": "ATCATCTA", "PBM E-score": 0.00686}, {"sequence": "CATTGGCG", "PBM E-score": -0.115}, {"sequence": "ATAGTGAC", "PBM E-score": 0.00613}, {"sequence": "CCTTGTTC", "PBM E-score": 0.113}, {"sequence": "CACCCAGA", "PBM E-score": -0.138}, {"sequence": "GCAGCGAA", "PBM E-score": -0.0698}, {"sequence": "AGGAACAG", "PBM E-score": -0.243}, {"sequence": "CTACAGAC", "PBM E-score": -0.0516}, {"sequence": "ATTCTAGG", "PBM E-score": -0.24}, {"sequence": "ATCAAATA", "PBM E-score": -0.0732}, {"sequence": "ATGTTTTC", "PBM E-score": 0.118}, {"sequence": "GATGTGCA", "PBM E-score": -0.0587}, {"sequence": "CAAGAACG", "PBM E-score": -0.193}, {"sequence": "ATGGTTGC", "PBM E-score": -0.21}, {"sequence": "ATGACGTA", "PBM E-score": -0.125}, {"sequence": "CGCTTCAC", "PBM E-score": -0.0873}, {"sequence": "GGGGAACA", "PBM E-score": -0.00425}, {"sequence": "ATACCCGA", "PBM E-score": 0.476}, {"sequence": "ACTCTTGC", "PBM E-score": -0.119}, {"sequence": "AGAGTAGG", "PBM E-score": -0.108}, {"sequence": "ATCTGAGG", "PBM E-score": -0.0721}, {"sequence": "CGACCCAA", "PBM E-score": -0.147}, {"sequence": "GAATTGTC", "PBM E-score": -0.00523}, {"sequence": "CTCCCGCC", "PBM E-score": 0.182}, {"sequence": "ACGTTCTC", "PBM E-score": 0.0386}, {"sequence": "AGCAGAGG", "PBM E-score": -0.31}, {"sequence": "GTGGTTTA", "PBM E-score": 0.0136}, {"sequence": "CAGAGCGA", "PBM E-score": -0.0292}, {"sequence": "TTATTCAA", "PBM E-score": 0.0286}, {"sequence": "AGGGGCGA", "PBM E-score": -0.127}, {"sequence": "AACCCTCG", "PBM E-score": 0.144}, {"sequence": "CCTCGCAA", "PBM E-score": -0.151}, {"sequence": "GCGCGCCA", "PBM E-score": -0.0421}, {"sequence": "ACATCTAA", "PBM E-score": -0.0958}, {"sequence": "AGGGTCCA", "PBM E-score": -0.0617}, {"sequence": "AGTCAAAT", "PBM E-score": -0.264}, {"sequence": "ATGATAGG", "PBM E-score": -0.0605}, {"sequence": "GCATACGC", "PBM E-score": 0.0345}, {"sequence": "AGCAGTAA", "PBM E-score": -0.0503}, {"sequence": "AGGAAACG", "PBM E-score": -0.164}, {"sequence": "TGAGGCAA", "PBM E-score": -0.0958}, {"sequence": "CCCGTAAC", "PBM E-score": 0.225}, {"sequence": "ACTCTATG", "PBM E-score": -0.122}, {"sequence": "ACGGTCAG", "PBM E-score": -0.22}, {"sequence": "CTCCGGAG", "PBM E-score": 0.304}]}]}
